We go through two compounds from US9757408B2 (Hayashibara Co., Ltd., priority 2010, dated 2017).

For one series, the system named is RAW264.7 cells. Conditions: mouse, 1 day.
Series [1] has as its system IL-6 production in RAW264.7 cells. Briefly: IL-6 production from RAW264.7 cells, LPS (Experiment 4). Conditions: LPS 2 μg/mL.
Series [2] deals with TNF-α production in RAW264.7 cells. Nature of the series: TNF-α production from RAW264.7 cells, LPS (Experiment 4). As to conditions: for TNF-α Concentration: LPS 2 μg/mL; for IC50: Mus musculus, RAW264.7, read-out: concentration required for attaining 50% inhibition (IC50) of the TNF-α concentration in a control.

Like-named read-outs stand apart in the source and are kept apart here. Marks after values point to notes of the source that are not given here.

Consider `Nc1ncnc2c1ncn2[C@@H]1O[C@H](CO)[C@@H](O)[C@H]1O` [AN, adenosine, reference compound], for which the Cell viability is reported as 100% in the series with RAW264.7 cells (1 μM); 100% in the series with RAW264.7 cells (3 μM); 100% with RAW264.7 cells (6 μM); 100% with RAW264.7 cells (12 μM); 99% with RAW264.7 cells (24 μM); 98% in the series on RAW264.7 cells (32 μM). Besides, the Cell viability with RAW264.7 cells (40 μM) worked out at 97%. Further, the “IL-6 Concentration” value in series [1] (test substance 1 μM) is 3062 pg/mL; in series [1] (test substance 3 μM), 2862 pg/mL; in series [1] (test substance 6 μM) it was 2768 pg/mL; in series [1] (test substance 12 μM), 2672* pg/mL; in series [1] (test substance 24 μM) it was 2624* pg/mL; in series [1] (test substance 32 μM) it was 2867* pg/mL. In series [1] (test substance 40 μM), the “IL-6 Concentration” value is recorded as 2435* pg/mL. Besides, the “TNF-α Concentration” value in series [2] (test substance 1 μM) is given as 634.1 pg/mL; in series [2] (test substance 3 μM) it was 460.2 pg/mL; in series [2] (test substance 6 μM) it was 398.7 pg/mL; in series [2] (test substance 12 μM), 404.5 pg/mL; in series [2] (test substance 24 μM), 346.8* pg/mL; in series [2] (test substance 32 μM), 308.5* pg/mL. Further, the “TNF-α Concentration” value in series [2] (test substance 40 μM) is on record as 193.1* pg/mL. The IC50 in series [2] is 22 µM.
On to `Nc1c2ncn([C@@H]3O[C@H](CO)[C@@H](O)[C@H]3O)c2nc[n+]1[O-]` [ANO, adenosine N1-oxide], for which the Cell viability with RAW264.7 cells (0.1 μM), in the series on RAW264.7 cells (0.3 μM), with RAW264.7 cells (0.6 μM), with RAW264.7 cells (1 μM), with RAW264.7 cells (3 μM) and in the series on RAW264.7 cells (6 μM) was 100% in each case. The Cell viability with RAW264.7 cells (12 μM) is listed as 100%. Further, the “IL-6 Concentration” value in series [1] (test substance 0.1 μM) is 3156 pg/mL; in series [1] (test substance 0.3 μM) it was 2993 pg/mL; in series [1] (test substance 0.6 μM) it was 2688* pg/mL; in series [1] (test substance 1 μM), 2645* pg/mL; in series [1] (test substance 3 μM), 2088* pg/mL; in series [1] (test substance 6 μM) it was 1739* pg/mL. In addition, in series [1] (test substance 12 μM), the “IL-6 Concentration” value is listed as 1103* pg/mL. The “TNF-α Concentration” value was 648.7 pg/mL in series [2] (test substance 0.1 μM); 543.3 pg/mL in series [2] (test substance 0.3 μM); 361.6* pg/mL in series [2] (test substance 0.6 μM); 333.2* pg/mL in series [2] (test substance 1 μM); 259.1* pg/mL in series [2] (test substance 3 μM); 270.4* pg/mL in series [2] (test substance 6 μM). For the same compound, the “TNF-α Concentration” value in series [2] (test substance 12 μM) is on record as 162.3* pg/mL. The IC50 in series [2] was 1.2 µM.
